Measurements reported in PubChem BioAssay AID1346428 (National Center for Advancing Translational Sciences (NCATS), 2018).
Values joined by “and” are separate entries in the source; they are usually repeats but may differ in a detail not shown here. Equal values may be shown once. Screen size: about 48,000 compounds; about 1,200 (2.5%) were called active. About 2% were inconclusive and are not listed.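 The calls were made as follows: active = activation of at least 60% and not above a set upper limit (about 1 call in 100 departs from these limits); inconclusive = activation of 40% to 60%, or above that upper limit; inactive = activation under 40%.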 The list shows a part of the results.
Also: 0% is about no effect.

What follows are compounds tested against Probable G-protein coupled receptor 32 (Homo sapiens) (UniProt O75388) (assay: qHTS for Agonists of Human Resolvin D1 Receptor DRV1). Details: CHO-K1 GPR32 beta-arrestin PathHunter luminescence, 90 min; at 76.9 µM; stronger effect = higher value; zero percent set by DMSO-only wells.
Chain of UniProt O75388 (O75388 whole entry, looked up): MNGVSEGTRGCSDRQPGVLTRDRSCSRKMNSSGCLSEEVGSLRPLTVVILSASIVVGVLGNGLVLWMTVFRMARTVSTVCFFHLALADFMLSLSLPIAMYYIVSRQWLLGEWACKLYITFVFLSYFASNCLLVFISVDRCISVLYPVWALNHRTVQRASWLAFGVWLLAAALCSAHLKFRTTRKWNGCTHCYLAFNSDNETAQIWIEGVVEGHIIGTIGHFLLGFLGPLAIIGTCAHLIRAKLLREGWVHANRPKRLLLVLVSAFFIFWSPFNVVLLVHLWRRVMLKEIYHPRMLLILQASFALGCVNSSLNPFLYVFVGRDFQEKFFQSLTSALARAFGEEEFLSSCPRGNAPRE
Outline: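 CHO-K1 cells stably expressing ProLink-tagged GPR32 and Enzyme Activator-tagged beta-arrestin were seeded at 2,500 cells/well overnight, exposed to compounds for 90 min at 37 °C, then read by beta-Gal complementation chemiluminescence after 1 h detection reagent.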
With `O=c1oc2cc(O)ccc2cc1-c1nnc(Nc2ccccc2F)s1` the activation was inactive: 6.21%. For `CC[C@H](NC(C)C)[C@H](O)c1ccc(O)c2[nH]c(=O)ccc12`, the activation was inactive: -15.3%. `COc1ccc2nc(NC(=O)c3nc(SCc4ccccc4F)ncc3Cl)sc2c1` was tested, and the activation was inactive: -7.83%. With `Cc1cc(C)n(-c2nc3cc(Cl)ccc3nc2Nc2ccc(CC(=O)O)cc2)n1` the activation was inactive: 2.8%. In the case of `COc1ccccc1CNC(=O)C1CCN(S(=O)(=O)c2ccc3c(ccn3C)c2)CC1`, the activation is reported as inactive: -14.6%. In the case of `CCCn1c(=O)c2[nH]c(-c3ccc(S(=O)(=O)O)cc3)nc2n(CCC)c1=O`, the activation is reported as inactive: 4.65%. With `Cc1cccc(NC(c2ccccc2C)c2ccc3ccc(C)nc3c2O)n1` (centres undefined) the activation was inactive: -20.5%. In the case of `CCNC(=O)C1CCN(c2nnc(C)c3c(C)n(-c4ccc(OC)cc4)nc23)CC1`, the activation is reported as inactive: -3.78%. With `COC(=O)c1c(-c2cccs2)csc1NC(=O)c1ccc(OC)c(OC)c1` the activation was inactive: 5.03%. In the case of `Cc1ccc2c(c1)NC(=O)c1cccnc1O2`, the activation is reported as inactive: -9.66%. `Cc1ccc(-c2nc(CS(=O)(=O)CC(=O)NCCc3ccccc3)c(C)o2)cc1` was tested, and the activation was inactive: -3.19%. For `COc1ccc(S(=O)(=O)c2c(SC)nn(CC(=O)Nc3cccc(C)c3C)c2N)cc1`, the activation was inactive: 6.37%. In the case of `COc1ccc(CNC(=O)Cn2nc(N3CCN(c4ccccc4)CC3)ccc2=O)c(OC)c1`, the activation is reported as inactive: 9.78%. With `O=C(Nc1ccc(OCc2cc(=O)n3ccccc3n2)cc1)c1ccccc1Cl` the activation was inactive: -16.1%. In the case of `CC1=C(C(=O)Nc2ccccc2)C(c2ccncc2)n2nc(SCc3ccccc3F)nc2N1` (centres undefined), the activation is reported as inactive: 1.14%. With `CCC(C)Nc1oc(-c2ccc(COc3ccc(Cl)cc3)o2)nc1C#N` (centres undefined) the activation was inactive: 3.93%. `CCN(CC)c1nc2c(S(=O)(=O)c3cccc(Cl)c3)nnn2c2ccsc12` was tested, and the activation was inactive: -28.7%. For `CCC(C)NC(=O)CSc1nc2c(sc3ccccc32)c(=O)n1CCc1ccc(OC)c(OC)c1` (centres undefined), the activation was inactive: -10.3%. For `CCn1cc(C(=O)NCc2ccc(C)cc2)c(=O)c2cc(S(=O)(=O)N(C)C3CCCCC3)ccc21`, the activation was inactive: 28.2%. For `CCc1ccc(CN(Cc2ccco2)C(=O)COc2ccc(Cl)c(C)c2)cc1`, the activation was inactive: -22.9%. For `Cc1cccc(OCC(O)Cn2c(=N)n(CCN3CCCCC3)c3ccccc32)c1` (centres undefined), the activation was inactive: 17.6%. `N#C/C(=C/c1cn(Cc2ccccc2Cl)c2ccccc12)C(=O)Nc1cccc(Cl)c1` was tested, and the activation was inactive: -4.56%. For `COc1ccc(OC)c(C2C(C(=O)N3CCCCC3)=C(C)Nc3nc4ccccc4n32)c1` (centres undefined), the activation was inactive: 0.0763%. In the case of `COc1cc(NC(=O)N2CCC3(CC2)Nc2cc(F)ccc2-n2cccc23)cc(OC)c1OC`, the activation is reported as inactive: -8.52%. In the case of `CC(C)(C)c1ccc(CN(Cc2ccco2)c2cnc(S(C)(=O)=O)nc2C(=O)Nc2ccc(F)cc2)cc1`, the activation is reported as inactive: -25.9%. In the case of `Cc1cc(C)c(NC(=O)Cn2c(=O)nc(-c3ccccc3)c3cc(Cl)ccc32)c(C)c1`, the activation is reported as inactive: -10.9%. For `Cc1ccccc1CN1c2ccccc2-c2nc(SCC(N)=O)ncc2S1(=O)=O`, the activation was inactive: -12.2%. With `Cc1cc(=O)n(Cc2cccc(F)c2)c2c1c(C)nn2-c1cccc(F)c1` the activation was inactive: -7.56%. In the case of `CCc1cccc(CC)c1-n1nnc2c(sc3nc(C)cc(C)c32)c1=O`, the activation is reported as inactive: -10.7%. For `Clc1ccc(OCc2nc3ccccc3n2Cc2ccccc2)c(Cl)c1`, the activation was inactive: -2.45%. For `CCc1ccc(-c2nn(CC(=O)Nc3ccccc3C)c3c2cnc2ccc(C)cc23)cc1`, the activation was inactive: -4.75%. In the case of `O=C(CSc1nc(-c2ccc(F)cc2)[nH]c1-c1ccccc1)Nc1ccccc1`, the activation is reported as inactive: 12.3%. In the case of `COc1cc(NC(=O)c2nc3ccccc3nc2N2CCCCC2)cc(OC)c1OC`, the activation is reported as inactive: -16.8%. With `COc1cc(/C=C/c2nc(C#N)c(NCCc3ccccc3)o2)cc(OC)c1OC` the activation was inactive: -24.9%. For `Cc1ccc(C)c(NC(=O)c2nn(C)c3c2CS(=O)(=O)c2ccccc2-3)c1`, the activation was inactive: -2.21%. With `CC(C)(C)C1CCc2c(sc3nnn(CCOc4ccccc4)c(=O)c23)C1` (centres undefined) the activation was inactive: 3.27%. For `Cc1ccc(-c2nn(CC(=O)NC3CCCC3)c3c2cnc2ccccc23)cc1`, the activation was inactive: -5.65%. `Cc1ccc(C)c(NC(=O)CN2C(=O)c3cccnc3Oc3ccc(C)cc32)c1` was tested, and the activation was inactive: -29.3%. `Cc1cccc(-c2nc(CSCC(=O)NCCc3ccc(Cl)cc3)c(C)o2)c1` was tested, and the activation was inactive: 6.96%. `Cc1ccc(CNC(=O)c2ccc(-c3nc(CS(=O)c4ccccc4)c(C)o3)cc2)cc1` (centres undefined) was tested, and the activation was inactive: 13.3%. With `COCCn1ccc2c(OCC(=O)Nc3ccccc3F)cccc2c1=O` the activation was inactive: 48.2%. With `O=C1N(c2ccccc2)c2ccccc2C1(Cc1ccncc1)Cc1ccncc1` the activation was inactive: 5.54% and inactive: -4.94%. In the case of `CCOC(=O)N1CCc2c(sc3c2c(=O)n(CCc2ccccc2)c(=O)n3CC(=O)Nc2cccc(C)c2)C1`, the activation is reported as inactive: -10.7%. In the case of `CCOc1ccccc1NC(=O)Cn1c(=O)n(Cc2ccco2)c(=O)c2ccc(C(=O)NC3CCCC3)cc21`, the activation is reported as inactive: -0.938%. With `Cc1cc(F)ccc1NC1(c2ccccc2)C(=O)c2ccccc2C1=O` the activation was inactive: -74.1%. `CCc1ccccc1NC(=O)C1CCN(C(=O)N2CC(C)Oc3ccc(Cl)cc32)CC1` (centres undefined) was tested, and the activation was inactive: -8.53%. In the case of `COc1ccccc1NC(=O)N1CCC(CN2CCc3ccccc3C2)CC1`, the activation is reported as inactive: -12.2%. In the case of `COc1ccc(Cl)cc1NC(=O)Cn1nc(Cc2ccncc2)c2ccccc2c1=O`, the activation is reported as inactive: -16.2%. For `CCn1cc(C(=O)NCCc2ccc(OC)c(OC)c2)c(=O)c2cc(S(=O)(=O)N3CCC(C)CC3)ccc21`, the activation was inactive: -36.8%. `CCOc1ccc(-n2c(SCC(=O)N3CCCCCC3)nc3c([nH]c4ccccc43)c2=O)cc1` was tested, and the activation was inactive: -3.01%. `CC(C)COC(=O)c1ccc(N)cc1` was tested, and the activation was inactive: 2.58%. For `Cc1ccc(OC(=O)CSc2nnc(-c3cccs3)o2)cc1C`, the activation was inactive: -5.54%. In the case of `Cc1ccc(NC(=O)c2sc3nc[nH]c(=O)c3c2C)cc1Cl`, the activation is reported as inactive: -16.2%. With `Cc1ccc(NC(=O)Cn2c(=O)oc3ccccc32)cc1C` the activation was inactive: -4.51%. With `CCOc1ccc(N(CC(=O)Nc2ccccc2CC)S(=O)(=O)c2c(C)[nH]c(=O)[nH]c2=O)cc1` the activation was inactive: -4.86%. With `Cc1c(Cl)cccc1-n1ncc(C(=O)NCc2cccs2)c1C1CCN(C(=O)OC(C)(C)C)CC1` the activation was inactive: -9.07%. With `COC(=O)c1c(NC(=O)c2cc(OC)c(OC)c(OC)c2Br)sc2c1CCC(C)C2` (centres undefined) the activation was inactive: -0.342%. With `Cc1cccc(NC(=O)c2cc(S(=O)(=O)N3CCN(c4ccccc4F)CC3)ccc2F)c1C` the activation was inactive: -24.5%. For `COc1ccc(CNC(=O)CCn2nc(C)c3c(C)n(-c4ccccc4)nc3c2=O)c(OC)c1`, the activation was inactive: 8.24%. For `CNC(=O)Cn1c(=O)c2cccn2c2ccc(F)cc21`, the activation was inactive: -5.43%. With `COc1cc(C2c3c(-c4ccc(C)cc4)n[nH]c3C(=O)N2c2ccc(F)cc2)ccc1O` (centres undefined) the activation was active: 104%. `O=C(CCNS(=O)(=O)c1cccc2nsnc12)NCc1ccccc1` was tested, and the activation was inactive: 22.3%. For `CC(C)CNc1ncnc2c1nnn2C`, the activation was inactive: -11.7%. `COc1ccc(CNC(=O)c2ccc3nc(CCc4ccccc4)oc3c2)c(OC)c1` was tested, and the activation was inactive: -7.23%. For `Cc1cc(C)cc(OCC(=O)Nc2cccc3cccnc23)c1`, the activation was inactive: -1.48%. In the case of `COC(=O)c1ccccc1NC(=O)[C@H]1O[C@@H]2OC(C)(C)O[C@@H]2[C@H]2OC(C)(C)O[C@H]21`, the activation is reported as inactive: -36.7%. In the case of `O=C(c1ccc2c(c1)N(Cc1ccc(Cl)cc1)C(=O)c1ccccc1S2(=O)=O)N1CCCC1`, the activation is reported as inactive: -20.1%. With `CCOC(=O)c1ccc(N2C(=O)c3n[nH]c(-c4ccco4)c3C2c2ccc(C(=O)OC)cc2)cc1` (centres undefined) the activation was inactive: -1.98%. `CC(=O)Nc1cccc(-c2nc(-c3ccccc3)no2)c1` was tested, and the activation was inactive: -0.287%. For `CCCc1cnc2c(c1SCC(=O)NCc1ccc(C)cc1)c(=O)n(C)c(=O)n2C`, the activation was inactive: -12.2%. With `CCCCCCC(=O)Nc1ccc2nc3c(=O)n(C)c(=O)n(C)c3nc2c1C` the activation was inactive: -19.1%. `CCCCOc1ccccc1C1CC(=O)Nc2ccc3ccccc3c21` (centres undefined) was tested, and the activation was inactive: -43.1%. In the case of `CC(C)c1ccc(S(=O)(=O)N2CCN(Cc3cccc(F)c3)CC2)cc1`, the activation is reported as inactive: -22.9%. In the case of `COc1ccccc1CCNC(=O)Cc1c(C)c2cc(Cl)c(O)cc2oc1=O`, the activation is reported as inactive: 15.1%. `COc1ccc(C)c2sc(NC(=O)c3ccc(S(=O)(=O)N(C)C)cc3)nc12` was tested, and the activation was inactive: -3.35%. In the case of `CCOc1ccc(CNC(=O)c2oc3c(c2C)-c2nn(Cc4cccc(Cl)c4)cc2CC3)cc1`, the activation is reported as inactive: 10.3%. `CC(=O)OCC(=O)[C@@]1(O)CCC2C3CCC4=CC(=O)CC[C@]4(C)C3[C@@H](O)C[C@@]21C` (some centres undefined) was tested, and the activation was inactive: -2.53%. For `CCOc1ccc(-c2cccc(NS(=O)(=O)c3ccc(C)s3)c2)nn1`, the activation was inactive: -4.41%. In the case of `CCOC(=O)C1CCN(C(=O)c2cc3sc(C)cc3n2C)CC1`, the activation is reported as inactive: -4.39%. With `CCCCN(CC)C(=O)CSc1nc2n[nH]c(C)c2c(=N)n1-c1ccc(CC)cc1` the activation was inactive: -26%. `COCCCn1c(=O)c2sccc2n2c(CCCC(=O)NCc3cccc(OC)c3)nnc12` was tested, and the activation was inactive: -11.2%. For `CN(C)CC[C@@H](c1ccc(Cl)cc1)c1ccccn1`, the activation was inactive: 0.197% and inactive: 6.15%. For `Cc1ccc(N(C)C(=O)c2sc3nc4n(c(=O)c3c2C)CCCC4)cc1C`, the activation was inactive: -12.1%. For `COc1ccc(NC(=O)CSc2ncc3c(n2)-c2ccccc2N(Cc2ccc(C)cc2)S3(=O)=O)cc1Cl`, the activation was inactive: 15.4%.
